Reference: PubChem BioAssay AID686979 (National Center for Advancing Translational Sciences (NCATS), 2013)
Where “and” joins values, the source holds several entries; their conditions need not be identical. Identical values can stand only once. About 50,000 (12%) of roughly 420,000 compounds were called active. The inconclusive results got no clear call from the source; some entries with a clear call stand among them for comparison. Calls come from the whole dose curve; as a rule, active = well fitted inhibition curve with a large enough effect; inconclusive = small, poorly fitted or top-dose-only effect; inactive = flat fitted curve, though single readings scatter. A potency beside an inconclusive call is a rough fit, not a confirmed value.
% is set by controls: 0 for no effect and ±100 for the full control effect; potency is the fitted concentration of half-maximal effect; tags give direction and shape of the fitted curve.

Experiment: qHTS for Inhibitors of human tyrosyl-DNA phosphodiesterase 1 (TDP1): qHTS in cells in presence of CPT; note: nearly all actives have a fitted effect of over 55% in size
Details: chicken DT40 Tdp1-/-;hTDP1 cells + 20 nM CPT, ATP luminescence, 48 h; activity change, negative = growth inhibition: at 46.2 µM (top of the series) unless noted
Procedure, shortened: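 Chicken DT40 Tdp1-/- cells stably complemented with human TDP1 were seeded at 400 cells/well in medium containing 20 nM camptothecin, exposed to pin-transferred compounds, and grown at 37 °C for at least 48 hr. Viability was read as ATP luminescence.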
With `CCOc1ccc(-n2c(SCC(=O)N3CCCc4ccccc43)nc3c([nH]c4ccccc43)c2=O)cc1` the “activity change, negative = growth inhibition” value was inactive: -24%.
In the case of `COc1cc(/C=N/NC(=O)c2ccc3c(c2)OCCO3)cc(Br)c1O`, the “activity change, negative = growth inhibition” value is reported as inactive: -29.3%.
With `CCOc1cc(C(=S)N2CCOCC2)ccc1OS(=O)(=O)c1ccc(C)cc1` the “activity change, negative = growth inhibition” value was inactive: -11.1%.
For `Cc1ccc(CNC(=O)C2CC(c3cccc([N+](=O)[O-])c3)=NO2)o1` (stereo unspecified), the Potency was inconclusive: 29.1 µM [inhibitor, single point].
With `FC(F)Oc1ccccc1/C=N/n1cnc2ccccc21` the Potency was inconclusive: 29.1 µM [inhibitor, single point].
For `CC(C)C(=O)NC(NC(=S)Nc1ccc(S(N)(=O)=O)cc1)C(Cl)(Cl)Cl` (stereo unspecified), the “activity change, negative = growth inhibition” value was inactive: -7.22%.
For `COc1cc(NC(=O)c2ccc(-c3ccc(Br)cc3)o2)ccc1NC(=O)C(C)C`, the Potency was active: 14.6 µM.
With `O=C(CCCN1C(=O)/C(=C/c2ccc(F)cc2)SC1=S)Nc1ccc(C(=O)O)cc1` the Potency was inconclusive: 29.1 µM [inhibitor, single point].
With `CCOC(=O)CCSCC(=O)N1N=C(c2cccs2)CC1c1ccc(C)cc1` (stereo unspecified) the Potency was inconclusive: 29.1 µM [inhibitor, single point].
In the case of `CCCNC(=O)OCCC12CC3CC(CC(C3)C1)C2`, the Potency is reported as inconclusive: 29.1 µM [inhibitor, single point].
For `COc1cc2[nH]c(C(=O)N(C)Cc3ccccc3)cc2c(OC)c1OC`, the “activity change, negative = growth inhibition” value was inactive: -10.3%.
In the case of `O=C(c1cnn2c(C(F)(F)F)cc(-c3ccco3)nc12)N1CCCCCC1`, the Potency is reported as inconclusive: 0.461 µM [inhibitor, full curve, poor fit].
For `O=C(N/N=C/c1c[nH]c2ccccc12)c1cc(Cl)ccc1O`, the activity change, negative = growth inhibition was inconclusive: -4.74% [inhibitor].
In the case of `CCCCc1ccc(NC(=O)CN(C)CC(=O)Nc2ccccc2Cl)cc1`, the Potency is reported as inconclusive: 29.1 µM [inhibitor, single point].
With `CC(=O)C1=NN(c2ccccc2)C2(S1)S/C(=C\c1ccccc1)C(=O)N2c1ccccc1` (stereo unspecified) the Potency was inconclusive: 29.1 µM [inhibitor, single point].
For `COc1ccc(N2CCN(C(=O)C(=O)c3cn(CC(=O)N4CCCC4)c4ccccc34)CC2)cc1`, the Potency was active: 20.6 µM.
With `Cc1ccc(SCC(=O)Nc2cc(S(=O)(=O)N3CCCCC3)ccc2C)cc1` the Potency was inconclusive: 18.4 µM [inhibitor, single point].
With `O=C(CCn1c(=O)c2ccccc2n(Cc2ccc(Cl)cc2)c1=O)NCc1ccc2c(c1)OCO2` the “activity change, negative = growth inhibition” value was inactive: -29.2%.
In the case of `O=C(O)CC1S/C(=N/N=C/c2ccc([N+](=O)[O-])cc2)N(c2ccc(O)cc2)C1=O` (stereo unspecified), the “activity change, negative = growth inhibition” value is reported as inactive: 8.01%.
With `CCn1cc(C(=O)NC2CC(C)(C)Cc3c2cnn3-c2cccc(F)c2)cn1` (stereo unspecified) the Potency was active: 16.4 µM.
With `CCOc1ccccc1NC(=O)CCS(=O)(=O)c1ccc(OC)cc1` the Potency was inconclusive: 29.1 µM [inhibitor, single point].
For `CCOC(=O)c1[nH]c(C)c(C(=O)NCCc2ccccc2)c1C`, the “activity change, negative = growth inhibition” value was inactive: -13.6%.
In the case of `CC(C)NC(=S)NC(=O)/C=C/c1ccc(F)cc1`, the Potency is reported as active: 20.6 µM.
In the case of `CC(C)OC1=CC(=O)OC(c2cccc(Cl)c2)C1` (stereo unspecified), the “activity change, negative = growth inhibition” value is reported as inactive: -21.9%.
For `Cc1nn(-c2ccccc2)c2sc(C(=O)N(CC(=O)NC3CCCC3)Cc3ccco3)cc12`, the Potency was inconclusive: 29.1 µM [inhibitor, single point].
With `CN(c1ccc(Cl)cc1)S(=O)(=O)c1nnc(NC(=O)c2ccco2)s1` the Potency was inconclusive: 14.6 µM [inhibitor, single point] and inconclusive: 29.1 µM [inhibitor, single point].
In the case of `COc1ccc(COC(=O)NNC(=O)c2ccc(OC)cc2)cc1`, the activity change, negative = growth inhibition is reported as inconclusive: -33.5% [inhibitor].
With `CC(=O)c1cc(-c2ccccc2)[nH]c1N1CCOCC1` the “activity change, negative = growth inhibition” value was inactive: -21.2%.
In the case of `O=C(O)Cn1c(SCCOc2ccccc2F)nc2ccccc21`, the Potency is reported as inconclusive: 29.1 µM [inhibitor, single point].
With `c1coc(-c2nnc(-c3ccco3)nn2)c1` the Potency was active: 5.8 µM.
With `CC(C)OC(=O)CSc1nnc(COc2ccc([N+](=O)[O-])cc2)n1C` the “activity change, negative = growth inhibition” value was inactive: 0.0609%.
With `Cc1ccc(C(=O)OC(C)C(=O)N(C)C2CCCCC2)cc1S(=O)(=O)N1CCCCC1` (stereo unspecified) the Potency was inconclusive: 29.1 µM [inhibitor, single point].
In the case of `C=CCNC(=S)N1CCN(c2cc3c(cc2F)c(=O)c(C(=O)O)cn3CC)CC1`, the Potency is reported as inconclusive: 25.9 µM [inhibitor, single point].
In the case of `CCCCNc1c(-c2cccc(SC3CCCCC3)c2)nc2ccc(Cl)cn12`, the Potency is reported as inconclusive: 29.1 µM [inhibitor, single point].
For `COc1c(C)cc(C(O)c2ncc(-c3ccccc3)[nH]2)cc1C` (stereo unspecified), the Potency was inconclusive: 29.1 µM [inhibitor, single point].
With `CN(CCOc1ccc(Cl)cc1)C(=O)c1cc(-c2ccco2)nc2ccccc12` the Potency was inconclusive: 29.1 µM [inhibitor, single point].
With `COc1ccc(C(=O)CCC(=O)N2CCN(c3ccccc3)CC2)cc1` the Potency was active: 16.4 µM.
In the case of `COC(=O)C1=CN(C(C)c2ccccc2)C=C(C(=O)OC)C1c1cc(OC)c(OC)c(OC)c1` (stereo unspecified), the Potency is reported as inconclusive: 14.6 µM [inhibitor, single point].
For `O=C(NCc1csc2ccccc12)Nc1cc(Cl)cc(Cl)c1`, the Potency was inconclusive: 29.1 µM [inhibitor, single point].
In the case of `Cc1nc(N2CCOCC2)c2c(C)c(C(=O)Nc3ccc(F)cc3F)sc2n1`, the “activity change, negative = growth inhibition” value is reported as inactive: -28%.
In the case of `COC(=O)c1cc(=O)nc(NN=Cc2ccc(C)cc2)s1`, the “activity change, negative = growth inhibition” value is reported as inactive: -16.6%.
In the case of `COc1ccc(N2CCN(C(c3cc(OC)ccc3OC)c3nnnn3Cc3ccco3)CC2)cc1` (stereo unspecified), the Potency is reported as inconclusive: 29.1 µM [inhibitor, single point].
For `COc1ccc(C)cc1NC(=O)CNc1ccccc1CN(C)C1CCCCC1`, the Potency was active: 18.4 µM.
For `FC(F)(F)c1cccc(NC(=S)NCc2ccccc2)c1`, the Potency was active: 20.6 µM.
For `CC(=O)C1=C(O)C(=O)N(CCCCCC(=O)O)C1c1ccc(N(C)C)cc1` (stereo unspecified), the Potency was inconclusive: 25.9 µM [inhibitor, single point].
For `COc1ccccc1CN(C)C(=O)c1ccccc1Sc1ccccc1C#N`, the Potency was inconclusive: 18.4 µM [inhibitor, single point].
For `O=c1cc(-c2ccc(O)cc2)oc2cc(OC3OC(CO)C(O)C(O)[C@H]3O[C@@H]3OC[C@@](O)(CO)C3O)cc(O)c12` (stereo partly specified), the “activity change, negative = growth inhibition” value was inactive: 7.8%.
In the case of `CCCNC(=O)c1cc(C2CCCN(S(=O)(=O)c3cccc4cccnc34)C2)on1` (stereo unspecified), the Potency is reported as active: 16.4 µM.
With `Cc1cc(C)cc(NC(=O)C2CCCN2S(=O)(=O)c2cccc3cccnc23)c1` (stereo unspecified) the Potency was inconclusive: 14.6 µM [inhibitor, partial curve, poor fit].
For `COc1ccc(N(C(=O)CNC(=O)c2ccco2)C(C(=O)NCC2CCCO2)c2ccccc2)cc1` (stereo unspecified), the “activity change, negative = growth inhibition” value was inactive: 13.8%.
In the case of `COc1ccc(N2C(=O)CC(NC3CCCCNC3=O)C2=O)cc1` (stereo unspecified), the “activity change, negative = growth inhibition” value is reported as inactive: 0.402%.
In the case of `CCOC(=O)C1(Cc2ccccc2C)CCCN(S(C)(=O)=O)C1` (stereo unspecified), the “activity change, negative = growth inhibition” value is reported as inactive: -19%.
In the case of `CCN(CC)c1ccc(C(=O)N/N=C(\C)c2ccc(OC)c(OC)c2)cc1`, the “activity change, negative = growth inhibition” value is reported as inactive: -4.11%.
With `O=C(c1ccc(F)cc1)N1CCC(C(=O)N(Cc2ccccc2)c2ccccc2)CC1` the Potency was active: 23.1 µM.
With `CCOC(=O)C1=C(CN(C)Cc2ccccc2)NC(=O)NC1c1ccc(OC(C)C)cc1` (stereo unspecified) the Potency was active: 16.4 µM.
For `CCN(CC)CCNC(=O)c1ccc(NC(=O)c2ccc(-n3cncn3)c([N+](=O)[O-])c2)cc1`, the “activity change, negative = growth inhibition” value was inactive: -1.32%.
For `CC(C)c1ccc(Nc2c(-c3ccsc3)nc3ccc(Cl)cn23)cc1`, the Potency was inconclusive: 5.8 µM [inhibitor, single point].
In the case of `COc1ccc(C(=O)NCc2ccccc2OC)cc1`, the “activity change, negative = growth inhibition” value is reported as inactive: -1.42%.
With `Cc1ccc(C)c(C(=O)CSc2n[nH]c(C)n2)c1` the Potency was inconclusive: 25.9 µM [inhibitor, single point].
In the case of `Cc1ccc(C)c(Oc2c(C(F)(F)F)oc3c(CN4CCN(C)CC4)c(O)ccc3c2=O)c1`, the Potency is reported as active: 23.1 µM.
For `CCc1noc(C)c1C(=O)Nc1nc(-c2ccccc2)cs1`, the Potency was inconclusive: 29.1 µM [inhibitor, single point].
In the case of `COc1ccc(C)cc1NC(=O)Cc1ccc(NC(=O)N2CCCCc3ccccc32)cc1`, the Potency is reported as inconclusive: 29.1 µM [inhibitor, single point].
In the case of `Cc1ccc(S(=O)(=O)NCC(c2ccccc2)N2CCN(c3ccc(F)cc3)CC2)cc1` (stereo unspecified), the Potency is reported as inconclusive: 18.4 µM [inhibitor, single point].
For `FC(F)(F)c1nnc2c3ccccc3c(Cl)nn12`, the Potency was active: 5.17 µM.
With `C[C@@H]1C[C@H]2[C@@H]3CCC4=CC(=O)C=C[C@]4(C)[C@@]3(F)[C@@H](O)C[C@]2(C)[C@H]1C(=O)CO` the Potency was inconclusive: 33.5 µM [inhibitor, single point] and inconclusive: 23.1 µM [inhibitor, single point].
For `CCn1c(=O)c(C(=O)NNC(=O)c2ccccc2Br)c(O)c2ccccc21`, the Potency was inconclusive: 29.1 µM [inhibitor, single point].
For `Cc1cc(C)c(NC(=O)C2CCCN2CCOC(=O)c2ccccc2)c(C)c1` (stereo unspecified), the Potency was inconclusive: 10.3 µM [inhibitor, partial curve].
In the case of `COc1ccc(C)cc1S(=O)(=O)N1CCCCCC1`, the Potency is reported as inconclusive: 29.1 µM [inhibitor, single point].
For `CC1CCN(C(c2ccccc2)c2nnnn2C(C)(C)C)CC1` (stereo unspecified), the Potency was inconclusive: 29.1 µM [inhibitor, single point].
With `COC(=O)Cn1cc(/C=C/c2cc[n+](C)cc2)c2ccccc21` the Potency was inconclusive: 20.6 µM [inhibitor, single point].
For `Cc1cccnc1C(NC(=O)C1CCN(Cc2ccccc2)CC1)c1ccc(F)cc1` (stereo unspecified), the Potency was inconclusive: 29.1 µM [inhibitor, single point].
